Source: PubChem BioAssay AID1347165 (National Center for Advancing Translational Sciences (NCATS), 2019)
Screen size: about 220,000 compounds; about 5,700 (2.6%) were called active. Inconclusive results, whose numbers are uncertain, are shown with a selection of clear calls. The call rests on the fitted dose curve; in most records, active means well fitted inhibition curve with a large enough effect; inconclusive means small, poorly fitted or top-dose-only effect; inactive means no such curve, though single readings can be large or run the other way. Potencies of inconclusive entries are doubtful fits and often do not repeat.

target: Lysine-specific demethylase 5B (Homo sapiens) (UniProt Q9UGL1); assay: Primary screen for KDM5B Histone Demethylases FDH-coupled qHTS; conditions: FDH-coupled NADH fluorescence (FDH is formaldehyde dehydrogenase); activity change, negative = inhibition: at 57.7 µM (top of the series) unless noted; further: nearly all actives have a fitted effect of over 70% in size; on activity change, negative = inhibition: 0% is about no effect
Procedure, shortened: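 Inhibition is measured as reduced NADH fluorescence generation from FDH coupling to formaldehyde release. Truncated KDM5BΔAP at 200 nM final acts on H3K4me3 peptide (12.5 µM in substrate mix) in pH 7.5 HEPES buffer with Tween-20, 30 min, room temperature.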
Potency means the concentration at half of the fitted maximal effect; tags describe the fitted curve by direction and shape.

Sequence of UniProt Q9UGL1 (Q9UGL1 whole entry, looked up, the tested form may be a part): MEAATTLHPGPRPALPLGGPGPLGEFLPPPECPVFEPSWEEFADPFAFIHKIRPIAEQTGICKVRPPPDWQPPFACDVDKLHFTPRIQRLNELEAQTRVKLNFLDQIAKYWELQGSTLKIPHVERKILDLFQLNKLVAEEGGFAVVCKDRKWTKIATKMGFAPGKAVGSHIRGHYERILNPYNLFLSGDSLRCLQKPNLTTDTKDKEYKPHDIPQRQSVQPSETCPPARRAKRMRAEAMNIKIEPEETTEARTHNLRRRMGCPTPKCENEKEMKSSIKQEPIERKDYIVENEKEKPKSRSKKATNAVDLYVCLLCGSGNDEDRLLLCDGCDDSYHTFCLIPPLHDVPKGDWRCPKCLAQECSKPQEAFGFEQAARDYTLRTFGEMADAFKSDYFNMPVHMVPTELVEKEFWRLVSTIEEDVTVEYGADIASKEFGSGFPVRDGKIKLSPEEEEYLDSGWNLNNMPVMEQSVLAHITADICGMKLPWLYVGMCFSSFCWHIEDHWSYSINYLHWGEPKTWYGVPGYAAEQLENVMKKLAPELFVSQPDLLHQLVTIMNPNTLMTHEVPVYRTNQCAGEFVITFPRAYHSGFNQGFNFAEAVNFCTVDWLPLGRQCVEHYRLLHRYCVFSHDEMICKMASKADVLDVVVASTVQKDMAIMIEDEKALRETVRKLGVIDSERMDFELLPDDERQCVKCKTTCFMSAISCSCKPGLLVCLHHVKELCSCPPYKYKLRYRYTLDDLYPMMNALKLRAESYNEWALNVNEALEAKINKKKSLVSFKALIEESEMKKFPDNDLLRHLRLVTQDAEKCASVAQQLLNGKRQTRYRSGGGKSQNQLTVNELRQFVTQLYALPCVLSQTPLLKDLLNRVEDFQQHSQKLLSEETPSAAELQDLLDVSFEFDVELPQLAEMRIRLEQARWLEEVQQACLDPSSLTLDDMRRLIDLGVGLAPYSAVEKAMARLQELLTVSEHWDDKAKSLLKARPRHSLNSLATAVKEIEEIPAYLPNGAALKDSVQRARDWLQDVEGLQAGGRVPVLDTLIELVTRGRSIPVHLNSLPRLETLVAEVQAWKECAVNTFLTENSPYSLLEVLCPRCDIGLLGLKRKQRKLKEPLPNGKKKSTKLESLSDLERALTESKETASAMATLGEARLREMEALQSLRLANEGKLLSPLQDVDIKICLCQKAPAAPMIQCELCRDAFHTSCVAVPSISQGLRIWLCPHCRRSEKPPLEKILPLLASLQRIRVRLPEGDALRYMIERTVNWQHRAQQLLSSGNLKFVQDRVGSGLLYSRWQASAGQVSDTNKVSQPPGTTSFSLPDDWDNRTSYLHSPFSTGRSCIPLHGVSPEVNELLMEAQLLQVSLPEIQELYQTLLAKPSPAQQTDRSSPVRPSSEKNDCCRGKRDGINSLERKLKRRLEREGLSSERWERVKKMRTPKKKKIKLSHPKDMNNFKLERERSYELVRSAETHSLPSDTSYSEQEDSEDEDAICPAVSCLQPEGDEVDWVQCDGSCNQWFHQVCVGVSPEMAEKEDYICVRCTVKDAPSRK

| SMILES | activity change, negative = inhibition | Potency |
| --- | --- | --- |
| O=C(Nc1ccc(F)cc1)c1ccc2c(Cl)c3c(nc2c1)CCC3 | inactive: 27.1% | – |
| CCOC(=O)c1cnc2c(ccc3ccccc32)c1Nc1ccc(Cl)cc1 | inconclusive: -45.5% [inhibitor] | – |
| Cc1cccc(C(=O)N[C@@H]2CN(C3CCOCC3)C[C@H]2CN(C)C)c1 | – | inconclusive: 25.1 µM [inhibitor, partial curve, poor fit] |
| Cc1[nH][nH]c(=O)c1N=Nc1ccc(S(N)(=O)=O)cc1 | – | inconclusive: 15.8 µM [inhibitor, partial curve, poor fit] |
| Cc1ccc(-n2ncc3c(Nc4ccccc4C)ncnc32)cc1 | – | inconclusive: 28.2 µM [inhibitor, single point] |
| CCOc1ccccc1C(=O)Nc1c(NCc2ccccc2)c2ccccc2oc1=O | – | inconclusive: 39.8 µM [inhibitor, single point] |
| Cn1ncc2c(C(=O)NCc3ccncc3)cc(-c3ccc(F)cc3)nc21 | – | active: 79.4 µM |
| CCCCC(=O)Nc1cccc(C)c1C | inactive: 12.8% | – |
| Cc1ccccc1[C@H]1C[C@@H](O)[C@@H](O)[C@@H]1NC(=O)c1cccnc1 | inactive: 11.8% [at 86.2 µM] | – |
| OC1(CN2CCCCC2)CCN(Cc2ccc(C(F)(F)F)cc2F)C1 (stereo not given) | inactive: -27.6% | – |
| Cc1ccc(-n2nc(CO)c(C(=O)NCCCc3ccccc3)n2)cc1 | – | inconclusive: 35.5 µM [inhibitor, partial curve, poor fit] |
| CC(C)(C)c1ccc(NC(=O)CCc2ncc(-c3ccccc3F)o2)cc1 | inactive: -2.05% | – |
| CCOC(=O)C(=CNc1cc(C(F)(F)F)ccc1N1CCOCC1)C(=O)OCC | – | inconclusive: 35.5 µM [inhibitor, partial curve, poor fit] |
| CCOc1ccc(S(=O)(=O)Nc2ccc(-c3ccc(N4CCC(C)CC4)nn3)cc2)cc1 | inactive: -15.1% | – |
| Cc1nnc(SCC2=C(C(=O)O)N3C(=O)C(NC(=O)Cc4ccccc4)C3SC2)s1 (stereo not given) | – | inconclusive: 44.7 µM [inhibitor, partial curve, poor fit] |
| O=c1n(-c2ccc([N+](=O)[O-])cc2)nc2n1CCN(Cc1ccc(C(F)(F)F)cc1)C2 | – | inconclusive: 8.91 µM [inhibitor, partial curve] |
| CCOc1ccc(C2C=C(c3ccc(OC)cc3)Nc3ncnn32)cc1 (stereo not given) | – | inconclusive: 10 µM [inhibitor, partial curve, poor fit] |
| COc1cccc(CN2CCNc3cc(-c4ccccc4)ncc3C2)c1 | – | inconclusive: 39.8 µM [inhibitor, partial curve, poor fit] |
| COc1ccc(-n2c(=O)c3ccccc3n(Cc3ccccc3C)c2=O)c(OC)c1 | – | inconclusive: 35.5 µM [inhibitor, single point] |
| Cc1ccc(Cn2c(Sc3ccc(C)cc3)nc3c2c(=O)[nH]c(=O)n3C)cc1 | inactive: 2.49% | – |
| CC(=O)Nc1nonc1-c1nnc(SCC(=O)Nc2ccc(C)c(Cl)c2)n1-c1ccccc1 | inactive: 8.08% | – |
| CCOc1ccccc1N1CCN(S(=O)(=O)c2cnn(CC)c2)CC1 | inactive: -8.95% | – |
| CCOP(=O)(OCC)c1nc(-c2ccc(C)cc2)oc1NCc1ccco1 | – | inconclusive: 25.1 µM [inhibitor, partial curve, poor fit] |
| COc1ccc(CNC(=O)[C@@H]2Cc3nc[nH]c3CN2Cc2ccc(CO)o2)cc1 | – | inconclusive: 28.2 µM [inhibitor, single point] |

| SMILES | activity change, negative = inhibition | Potency |
| --- | --- | --- |
| Cn1c(C(=O)NC(C)(C)C)cc2c1CCN(Cc1ccc(F)cc1)C2 | – | inconclusive: 22.4 µM [inhibitor, partial curve] |
| COCCC(=O)N1CCC(N2CC3CC(C2)[C@H]2CCCC(=O)N2C3)CC1 (stereo not given in full) | – | inconclusive: 28.2 µM [inhibitor, single point] |
| CSc1ccc(/C=C/c2nc(N)nc(-c3ccccc3O)n2)cc1 | inactive: 9.26% | – |
| CC(C(=O)Nc1ccc(F)cc1)n1nnc2sc(-c3ccccc3)cc2c1=O (stereo not given) | inactive: -24.4% | – |
| CN(C)C[C@@H]1CN(c2ncccn2)C[C@H]1NC(=O)c1ccc(Cl)cc1 | – | active: 28.2 µM |
| CSc1ccc(CNC(=O)CCn2c(=O)c3cccn3c3ccc(F)cc32)cc1 | inconclusive: -40.2% [inhibitor] | – |
| Clc1ccccc1Nc1cnc2ccc(N3CCOCC3)nn12 | – | active: 31.6 µM |
| COc1ccc(/C=C/C(=O)N2CC(C)CC(C)C2)cc1 (stereo not given) | inactive: 18.5% | – |
| COc1ccccc1CNC(=O)c1cnc2sc(N3CCCCCC3)nn2c1=O | – | inconclusive: 35.5 µM [inhibitor, partial curve, poor fit] |
| COc1cc(NC(=O)N2CC[C@H](c3nc4ccccc4o3)C2)cc(OC)c1 | – | inconclusive: 35.5 µM [inhibitor, partial curve, poor fit] |
| O=C(O)COc1ccc2c(=O)c(-c3ccccc3)coc2c1 | – | inconclusive: 39.8 µM [inhibitor, single point] |
| Cc1nc2sc(C(N)=O)c(N)c2c(-c2ccc(Br)cc2)c1C(=O)Nc1ccc(Cl)cc1 | – | inconclusive: 6.31 µM [inhibitor, partial curve, poor fit] |
| Cc1cccc(NC(=O)c2ccc(-c3nc(CSc4ccccc4)c(C)o3)cc2)c1C | – | inconclusive: 25.1 µM [inhibitor, partial curve, poor fit] |
| COc1ccccc1CNC(=O)CSc1nnc2ccc(-c3ccc4c(c3)OCO4)nn12 | inactive: 10.1% | – |
| COc1ccccc1N1CCN(C(=O)C(N)c2c(C)n[nH]c2C)CC1(C)C (stereo not given) | – | inconclusive: 2.51 µM [inhibitor, partial curve, poor fit] |
| Cc1noc(C)c1CCCNC(=O)CCC[C@@H]1[C@H]2CCCN3CCC[C@@H](CN1C)[C@@H]23 | – | inconclusive: 3.55 µM [inhibitor, partial curve] |
| COc1cccc(NC(=O)Cn2c(=O)n(CCCCC(=O)NCCc3ccccc3)c(=O)c3ccccc32)c1 | – | inconclusive: 1.58 µM [inhibitor, full curve, poor fit] |
| O=C(O)c1cccn1-c1ccccc1 | inactive: 3.99% | – |
| Cc1ccc(NS(=O)(=O)c2ccc(Cl)c(C(=O)O)c2)cc1Cl | inactive: 21% | – |
| CCc1ccc(C(=O)N2CCN(C(=O)C3(C)CC3(Cl)Cl)CC2)cc1 (stereo not given) | inactive: 19.3% | – |
| c1ccc2[nH]c([C@H]3CCN(CC4CCCCC4)C3)nc2c1 | – | inconclusive: 35.5 µM [inhibitor, single point] |
| COC(=O)C(C)Oc1ccc2cc(-c3ccc(OC)c(OC)c3)c(=O)oc2c1 (stereo not given) | inactive: 105% | – |
| Cc1ccc(N2CCCS2(=O)=O)cc1NS(=O)(=O)c1ccc(F)cc1C | inactive: 12.6% | – |
| COc1ccccc1-c1cc(C(=O)NCc2cccnc2)c2c(c1)N(C)CCO2 | – | active: 39.8 µM |

| SMILES | activity change, negative = inhibition | Potency |
| --- | --- | --- |
| Cc1nn2c(c1-c1ccccc1-c1ccccc1)N(C(=O)c1ccn(C)n1)CCC2 | inactive: -11.3% [at 86.2 µM] | – |
| CCc1ccccc1NC(=O)c1cnn2c1NC(C(=O)O)=CC2c1ccccc1OC (stereo not given) | – | inconclusive: 14.1 µM [inhibitor, partial curve, poor fit] |
| COCCCNc1nc2c([S+](=O)([O-])c3ccc(Br)cc3)nnn2c2ccccc12 | inactive: -43% [at 115 µM] | – |
| CCCCCn1nc(C(=O)OCC(=O)Nc2cc(C)on2)c2ccccc2c1=O | inactive: 11.8% | – |
| COCC(=O)N[C@H]1CO[C@H]2[C@@H]1OC[C@@H]2Nc1nccc(-c2cccc(C#N)c2)n1 | – | inconclusive: 35.5 µM [inhibitor, partial curve, poor fit] |
| COc1ccc(-c2nn(-c3ccccc3)cc2CN2CCC(CO)CC2)c(F)c1 | inactive: -2.39% | – |
| O=C(c1cc(-c2cccs2)nc2ccccc12)N1CCN(CCO)CC1 | – | inconclusive: 25.1 µM [inhibitor, partial curve, poor fit] |
| COc1ncccc1CNC[C@H]1Cn2cc(-c3ccc4c(c3)OCCCO4)nc2CO1 | – | inconclusive: 31.6 µM [inhibitor, single point] |
| Oc1ccccc1CN1C[C@H](O)C[C@H]1c1nc(-c2ccc(F)cc2)no1 | inactive: 11% [at 86.2 µM] | – |
| O=C(O)C[C@@H]1CCN(C(=O)c2ccc(C(F)(F)F)cc2)C[C@@H]1CCN1CCN(c2cccc(C(F)(F)F)c2)CC1 | inactive: -25.1% | – |
| COc1ccc(C(=O)COC(=O)C2CC(=O)N(NC(=O)c3ccc(Cl)c(Cl)c3)C2)cc1 (stereo not given) | inactive: 6.7% | – |
| Cc1cccc(C)c1OC(=O)CSc1nnc(-c2cccs2)o1 | – | inconclusive: 35.5 µM [inhibitor, single point] |
| Cc1c(N)cccc1-c1nc2cc(C(C)C)ccc2o1 | – | inconclusive: 28.2 µM [inhibitor, partial curve, poor fit] |
| COCCOC1CCN(C(=O)c2cccc3[nH]ccc23)CC1 | – | inconclusive: 22.4 µM [inhibitor, single point] |
| COc1ccc(NC(=O)c2ncoc2-c2cccc(C)c2)c(OC)c1 | inactive: -12.8% | – |
| CCn1c(N)c(-c2csc(Nc3cc(C)ccc3C)n2)c(=O)[nH]c1=O | – | inconclusive: 14.1 µM [inhibitor, single point] |
| CCOC(=O)c1ccc(NC(=O)COC(=O)c2cn(CC)c3nc(C)ccc3c2=O)cc1 | – | inconclusive: 5.01 µM [inhibitor, partial curve, poor fit] |
| CCn1cc(CN2C[C@@H](COc3ccccc3)[C@H](C(N)=O)C2)c(C)n1 | inactive: -1.36% | – |
| CN(C)c1cccc(N(C)C)c1CNC(=O)C(C)(C)C | inactive: 26.1% | – |
| CCc1ccccc1Nc1nc2ccccc2n2cnnc12 | – | inconclusive: 39.8 µM [inhibitor, single point] |
| COc1ccc(CCc2nc3nccc(-c4ccc(OC)c(OC)c4)n3n2)cc1OC | – | inconclusive: 20 µM [inhibitor, partial curve, poor fit] |
| NC(=O)C1CCN(C(=O)Cn2c(-c3cccs3)cc3ccccc32)CC1 | – | inconclusive: 31.6 µM [inhibitor, partial curve, poor fit] |
